{"source": "paper PMC12136788", "binders": {"B1": {"name": "chr7:151048522:151048523:+_ENSG00000013374_ENST00000566856|hu_mus|hu_hu_hu_mus_True|8_48 (ssRNA)", "RNA": "GGGAGUUCUACAGUCCGACGAUCCUGUUUCUUAUUUAUUACGAUCUUGAUGUAAUUUUCUUGAAAUCCGAAAGUUUCAGCUAUUUGGGACCUCAGUUCUCUACCAGUGACAUGCAAGCGGGUCUCCAACAAGUUUUUCUUAUCCAACAGAGGAUUGAGCAUCA"}, "B2": {"name": "chr16:94690093:94690094:+_ENSMUSG00000040785_ENSMUST00000117648|mus_hu|mus_mus_mus_hu_True|1_8 (ssRNA)", "RNA": "GGGAGUUCUACAGUCCGACGAUCGGGCUGGGAUGACGGACACACAGCCUCGAUUCCAGGGGGAAAAAGUCUUAGUCGAUACUAAUUAAAAAGUGUUAAUGAUUUUUGAAAAUCAGAUUACAUCUAUUUGAAUCAUAAGCACUUCAACAGAGGAUUGAGCAUCA"}, "B3": {"name": "chr1:130485734:130485735:-_ENSMUSG00000045382_ENSMUST00000052172|mus_mus|motif|central (ssRNA)", "RNA": "GGGAGUUCUACAGUCCGACGAUCGAUGAAGGAGUCGAUGCUGAUCCCCACAUAAUAUGGCAGCCAGCAGGCAAAGAAAGCGGGGAUGAGGAUGACUGUCGUCUUGAGGGCCUUGCGCUUCUGGUGGCCCUUGGAGUGUGACAGCAACAGAGGAUUGAGCAUCA"}, "B4": {"name": "chr4:41258970:41258971:+_ENSG00000154277_ENST00000284440|hu_hu|FALSE|FALSE (ssRNA)", "RNA": "GGGAGUUCUACAGUCCGACGAUCUGAGCUGCAUCUUCGCGGAGCGCCCGGCAGAAAUAGCCUAGGGAAGACGAAAAACAGCUAGCGGAGCCGCCCAGGCUGCAGCUAUAAAGCGCCGGCCAGACGCACUGUGAGGCCUGUGCACAACAGAGGAUUGAGCAUCA"}, "B5": {"name": "chr1:8037743:8037744:+_ENSG00000116288_ENST00000493373|perfect_dup|FALSE|FALSE (ssRNA)", "RNA": "GGGAGUUCUACAGUCCGACGAUCGCCAUUCAUCAUUUUGUCCUUAGCCAGUGGGUGUGUUGUGACCUUGCAUCCAAAACCUACUUCGUGAGCCAACAGAGCCGUAGGACCUGCACAGAUGGCAGCUAUGAGGCCCUUCCUGCUCAACAGAGGAUUGAGCAUCA"}, "B6": {"name": "chr3:127788656:127788657:+_ENSG00000058262_ENST00000243253|hu_mus|FALSE|FALSE (ssRNA)", "RNA": "GGGAGUUCUACAGUCCGACGAUCAAUUCACUUCUACUGGUUUUUUGCCAAUGCCAGAAAAAGCAAAAUUUCAAAUUGGAAAUUUCCUAGCACUUUACACAGUGGAAUGAAAAGAUAUGAAAUUUUAAAAAAAAUUAAAAAAAACAACAGAGGAUUGAGCAUCA"}, "B7": {"name": "chr22:32879901:32879902:+_ENSG00000100225_ENST00000397426|hu_mus|hu_hu_hu_mus_False|48_58 (ssRNA)", "RNA": "GGGAGUUCUACAGUCCGACGAUCCUCUUCCAUACUCAUGGCAUCCUGAAUUGACUCAGCUUCAACAUUUUGACUAGGCCCUAACAUACUGUCGUCAGUCCAGGCAUCAAAUGGGGUGGCCUGUCCUUGGGAUGAAUCAGUCCCCAACAGAGGAUUGAGCAUCA"}, "B8": {"name": "chr8:59070621:59070622:+_ENSMUSG00000038206_ENSMUST00000040218|mus_hu|FALSE|FALSE (ssRNA)", "RNA": "GGGAGUUCUACAGUCCGACGAUCGAUAAACAAAAUUAGGAAAAAUUCUGCAAAAUUAUUUAGUUCCCCAAGGAAAUUACUAAAAUAGAAAAUGGCAAAAGAAAAAAAGGUUGCACACUGAAGCUUGAUUGUAUACUCAGGCUACAACAGAGGAUUGAGCAUCA"}, "B9": {"name": "chr16:20679341:20679342:+_ENSMUSG00000045983_ENSMUST00000044783|mus_mus|FALSE|FALSE (ssRNA)", "RNA": "GGGAGUUCUACAGUCCGACGAUCUGGGGGUGGUGAUGGGGUUGGAGAAGGCGACGAAGGCUGAGAUUCUGUGCCAGGGCUAUGCUCUGGGCCAGGCAGUCCUGGCCGCCCCCCAAUGGCUGCUCCCUGCGACCGGUCAUCUGGCAACAGAGGAUUGAGCAUCA"}, "B10": {"name": "chr4:144460044:144460045:+_ENSG00000153147_ENST00000283131|hu_mus|hu_hu_hu_mus_False|58_58 (ssRNA)", "RNA": "GGGAGUUCUACAGUCCGACGAUCACGGUCCAUAGCCUGAAGAUCAACUUGCGGAUUCCAAUCUGAGUCAUAUAAAAUUACUACAUCAGCAGUUGCAAGAUUGAUGCCCAGACCACCAGCACGUGUGCUUAGCAUAAAUACAAACAACAGAGGAUUGAGCAUCA"}, "B11": {"name": "chr7:52703327:52703328:+_ENSMUSG00000003865_ENSMUST00000003964|mus_mus|FALSE|FALSE (ssRNA)", "RNA": "GGGAGUUCUACAGUCCGACGAUCCACCUUCACACGGUCGGCACUGCUGUUGAAAAGGCCAAUUCGGCGGAUGGUGGUCAAGAUGGGGUCUGAGGAGUCGUCCAGCAUGUUGUGGGUGCACACUGGUGGGAAAGACUGCCGCUGCAACAGAGGAUUGAGCAUCA"}, "B12": {"name": "chr2:219460011:219460012:+_ENSG00000144580_ENST00000542068|hu_mus|motif|central (ssRNA)", "RNA": "GGGAGUUCUACAGUCCGACGAUCAAACUCAUUCAGCUGCUUCUACAAUCAUGAGGAGAUGGCACUAUGAAAACUCACGCGGGAGAACGGGGUCAAGUAGUCUACCAUUUGGAUCCAGGCGCUUACUCCGUUUGAGAAGACACCCAACAGAGGAUUGAGCAUCA"}, "B13": {"name": "chr4:115894766:115894767:+_ENSMUSG00000028698_ENSMUST00000030464|mus_hu|mus_mus_mus_hu_True|1_8 (ssRNA)", "RNA": "GGGAGUUCUACAGUCCGACGAUCUUCCACACGGAAAUGUACUUCGGGUUUUCCAACGGCCAGUACCAGUCCGGCCAAACUACCCGAACAGGGUCCUCCCCCUCUCUCCUACAGAACACAACAAAAUAACAAAAUACCCCGAACCAACAGAGGAUUGAGCAUCA"}, "B14": {"name": "chr2:61719535:61719536:-_ENSG00000082898_ENST00000401558|hu_hu|motif|central (ssRNA)", "RNA": "GGGAGUUCUACAGUCCGACGAUCGUUAACUACAGUCUUCAGAAAUUUCCAGUGAGCUCUCAAAAAACGUGGGUAUUGACCGGCGGUGUACAUGAUAUUUGAUGCAAUAAUAGCUUUAUUAUCUUUGCCUCUUUUCUGUUCACACAACAGAGGAUUGAGCAUCA"}}, "note": "Some of the results follow.", "data": [{"molecular_target": "T1, UNK ZnF1-3 (human, UniProt Q9C0B0 31-174)", "T1 sequence": "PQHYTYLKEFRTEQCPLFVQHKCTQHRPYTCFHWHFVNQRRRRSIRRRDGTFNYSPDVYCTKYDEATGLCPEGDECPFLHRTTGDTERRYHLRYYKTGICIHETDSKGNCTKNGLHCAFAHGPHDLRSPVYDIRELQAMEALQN", "experiment": "nsRBNS (natural sequence RNA bind-n-seq); RBNS binding buffer (assumed for nsRBNS): 25 mM Tris pH 7.5, 150 mM KCl, 3 mM MgCl2, 0.01% Triton X-100, 500 ug/ml BSA, 20 U/ml SUPERase-In, 4 C; UNK is unkempt and MSI1 is Musashi-1; names of the RNAs are library labels; protein concentration not given here; high values mean tight binding", "units": {"binding signal": "enrichment R"}, "values": [{"binder": "B1", "binding signal": 0.665}, {"binder": "B2", "binding signal": 0.493}, {"binder": "B3", "binding signal": 0.781}, {"binder": "B4", "binding signal": 1.25}, {"binder": "B5", "binding signal": 1.05}, {"binder": "B6", "binding signal": 2.75}, {"binder": "B7", "binding signal": 1.18}, {"binder": "B8", "binding signal": 2.93}, {"binder": "B9", "binding signal": 0.948}, {"binder": "B10", "binding signal": 1.47}, {"binder": "B11", "binding signal": 1.31}, {"binder": "B12", "binding signal": 1.42}, {"binder": "B13", "binding signal": 1.24}, {"binder": "B14", "binding signal": 1.11}]}]}
